Data published in the supplement of paper PMC3334620.
Whole data set: some 33,000 sequences, median “E-score (-0.5 to 0.5)” near -0.011, cut for the highest 2% near 0.28. The list shows a part of the results.

Target: T1, Gcr1 (UniProt P07261)
T1 sequence: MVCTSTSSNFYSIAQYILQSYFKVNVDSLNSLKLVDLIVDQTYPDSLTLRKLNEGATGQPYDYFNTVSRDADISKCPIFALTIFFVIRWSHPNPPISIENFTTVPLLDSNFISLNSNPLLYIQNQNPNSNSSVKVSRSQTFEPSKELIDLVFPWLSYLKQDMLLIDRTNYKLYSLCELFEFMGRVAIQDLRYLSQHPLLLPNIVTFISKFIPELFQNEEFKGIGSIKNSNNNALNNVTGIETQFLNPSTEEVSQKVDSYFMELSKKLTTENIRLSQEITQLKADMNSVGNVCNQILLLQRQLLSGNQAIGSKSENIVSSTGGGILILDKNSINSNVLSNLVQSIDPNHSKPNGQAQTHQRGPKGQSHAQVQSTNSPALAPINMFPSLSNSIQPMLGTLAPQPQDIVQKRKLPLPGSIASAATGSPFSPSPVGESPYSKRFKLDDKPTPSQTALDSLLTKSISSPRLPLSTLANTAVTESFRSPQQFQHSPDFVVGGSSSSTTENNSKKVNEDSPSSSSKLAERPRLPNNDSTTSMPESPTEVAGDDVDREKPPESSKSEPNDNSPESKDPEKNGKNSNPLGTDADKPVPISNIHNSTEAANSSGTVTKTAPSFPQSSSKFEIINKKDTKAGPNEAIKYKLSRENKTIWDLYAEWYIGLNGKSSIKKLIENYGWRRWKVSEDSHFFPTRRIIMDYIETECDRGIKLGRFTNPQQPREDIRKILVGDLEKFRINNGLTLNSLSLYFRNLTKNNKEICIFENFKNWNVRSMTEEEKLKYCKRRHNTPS
Experiment: PBM E-score (8-mer binding enrichment) (E-score (-0.5 to 0.5)); higher = stronger / more preferred TF binding; most listed sequences are background and not binding sites
Settings: protein concentration: 100 nM; construct: GST-full length
Method in brief: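 E-scores (a modified Wilcoxon-Mann-Whitney statistic) were assigned by the Universal PBM Analysis Suite to every ungapped eight-base word pooled with its reverse complement. The input came from universal all-10-mer Agilent arrays made double-stranded by primer extension and probed with GST-tagged yeast transcription factors at about 100-200 nM. Fluorescent anti-GST detected bound protein, and masliner normalised the scans.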

Sequence	PBM E-score
GAATGTCA	0.0276
CTCACACA	0.1
CCAGACCA	0.0882
GCTAGAAA	0.0615
AGAATTAC	0.217
ACTACGCA	-0.178
AACGGGCC	-0.216
CAGAGAGC	-0.117
GGTTCGAC	-0.205
CAACCATC	-0.0953
CCCTTAGA	0.00852
CGTTCTCA	-0.128
TGACACAA	0.0905
CCATCCCA	-0.053
AATGTGTC	-0.143
ATGGGTCA	0.00551
ACAAATTA	0.0552
ATCTCCCC	-0.0855
AGTGCATA	-0.235
GCGTCTCC	0.317
CGAGACCC	-0.0499
CGTGTTCC	0.0364
CTTCGTTC	-0.0459
GAGACGAA	-0.0232
AAGAACTT	-0.118

Sequence	PBM E-score
TCGGCAGA	-0.355
ACCCAACC	-0.0604
CACCTGGC	-0.0993
GAGTAGGC	-0.115
ATACCACA	0.069
ATACGGTA	-0.0716
GCGGTAGC	0.0196
ATAATGAT	0.111
CTTTCTCA	0.097
GAAAAAAC	0.0384
CTTGATGC	-0.041
AGATGGAG	-0.0368
AGGTGCCA	0.191
AAATCAAG	0.0229
ACATGACA	-0.0788
ATGGTATG	-0.0617
GTATCTTA	0.157
CCAAATAA	0.11
CCAATCTC	0.0169
ACCTAACC	-0.129
AGGGGGAC	-0.0068
CCAGGTGA	-0.0722
ACCGCTTC	0.0447
GTTCCGAA	0.153
AGTACACT	-0.0698

Sequence	PBM E-score
TCAGCAGA	-0.0771
AACTGGTA	0.224
TTTCAAAA	0.00738
TAGGGGGA	0.0246
AACACCAG	-0.155
CCGAGCAG	-0.0428
ATTAACCA	-0.0192
GTGTTTTA	0.0808
CCTCCGGA	0.0678
AACGAGGT	0.0158
GGGCATGA	-0.16
CCCCGATC	-0.111
CTATATTC	-0.0208
ACGAGGCT	0.0987
CTAATGGA	0.217
CCGGAAGC	0.439
ATCTCCAA	0.0732
ACAGTAAG	-0.178
ATTCAACC	-0.0136
TAAGTGGA	0.287
AGTCGCTG	0.0679
GTCAAGCA	-0.029
AGTTAAAT	-0.0999
GTCCCTCA	-0.111
CGGTCTCA	-0.0959

Sequence	PBM E-score
ATCATCAA	-0.0509
ATTCTCTC	-0.0118
TCGATGAA	-0.136
TAGCGGGA	0.0585
GCTACAAC	0.0291
CGCTCGTA	0.131
TAACTGCA	-0.114
CTACAATA	0.1
AAGTGAGA	-0.107
CGGAACGC	0.117
AGCCTGGC	-0.15
GCAGGGGA	-0.102
GTAGCCCA	0.236
CTGCCTGC	0.00094
CACCCCTA	0.158
AGTAGACC	-0.17
CGCTTGGC	-0.137
CGAGACTA	0.0202
AGTTTAAC	-0.0771
GATGCGGC	0.299
GCTATAGA	-0.1
CGGACCTC	-0.241
CCGGAGTC	0.176
CAATATGA	0.0529
CACCGCCG	-0.0149

Sequence	PBM E-score
CTGTATCC	0.207
CCGTTGGC	0.0332
ATAAACGC	0.104
CAAGCTCG	-0.231
GCTAAGAC	-0.103
CGTTGCAA	-0.151
AATCTCTA	0.0126
ATACCCTA	-0.245
CGTGGGGA	0.0446
AGGGCCAT	-0.0677
AGCCCTGC	-0.00124
GTTCGTCA	-0.227
TAAACCGA	-0.235
CTAGGGCC	-0.236
CCGATCAC	-0.0358
CAGATGAG	0.0921
ATCGGTTC	0.0137
AGCCTTCC	-0.163
TACGGCTA	-0.144
AGCCATGG	-0.041
AACGGCTT	0.0183
CTCATGTC	0.0304
GCAGGTGA	-0.0333
ACTTAGGA	0.148
GTAGTTAA	0.046

Sequence	PBM E-score
GCCTTTGA	-0.0776
GGAGCCCA	0.349
GACTGTAA	0.0401
GGGGCCAA	0.0277
AGAGCTGG	-0.143
AGCACGCG	0.115
ACTCATTG	-0.0594
AGCTTGGC	-0.112
GGGAGTAA	-0.0474
AGGGGTAC	-0.0702
CTATTCAA	0.039
GTGACACA	0.0534
ACCGGGAA	0.114
CAGACGCG	0.136
AGCTCCGA	0.0227
CCGCTAAG	0.0943
CGGGCCCG	0.0511
AGTAGATG	0.148
CAGGCCAC	-0.244
ATGTAAGC	-0.0373
TATTATCA	0.064
CAATGACG	-0.168
AGGCCTTA	-0.194
ACGAACAC	0.0367
AGTGGCTA	-0.0284

Sequence	PBM E-score
GAGATTCA	-0.0394
TGGAAACA	0.132
GTAATCGA	-0.119
CCTAAAGA	0.169
AAATCCTG	0.022
CACCGTAC	0.125
AAGCGTCT	0.168
CTACGTAG	-0.0317
GGATTTTA	0.0994
TCTAATCA	0.0699
CATGCTTA	-0.258
ATCATGAC	-0.137
ATGAGAAC	0.0361
ACCGTAAT	0.121
GATGTCAC	-0.0837
AATAGACC	-0.0724
ACAAGCGG	0.172
CGGAACTC	-0.0112
CCAGCCGA	-0.0834
ACTATCAA	0.0353
CTCGTTTA	0.159
CGTTTCCA	0.104
